Reference: the supplement of paper PMC3334620
In all, about 33,000 sequences were measured (“E-score (-0.5 to 0.5)”: median about -0.032, highest 2% from about 0.36 on). This is one part of the list.

Each sequence was assayed against T1, Sko1 (UniProt Q02100) (assay: PBM E-score (8-mer binding enrichment) (E-score (-0.5 to 0.5)); higher = stronger / more preferred TF binding; most listed sequences are background and not binding sites). Conditions: protein concentration: 200 nM; construct: GST-full length.
T1 sequence: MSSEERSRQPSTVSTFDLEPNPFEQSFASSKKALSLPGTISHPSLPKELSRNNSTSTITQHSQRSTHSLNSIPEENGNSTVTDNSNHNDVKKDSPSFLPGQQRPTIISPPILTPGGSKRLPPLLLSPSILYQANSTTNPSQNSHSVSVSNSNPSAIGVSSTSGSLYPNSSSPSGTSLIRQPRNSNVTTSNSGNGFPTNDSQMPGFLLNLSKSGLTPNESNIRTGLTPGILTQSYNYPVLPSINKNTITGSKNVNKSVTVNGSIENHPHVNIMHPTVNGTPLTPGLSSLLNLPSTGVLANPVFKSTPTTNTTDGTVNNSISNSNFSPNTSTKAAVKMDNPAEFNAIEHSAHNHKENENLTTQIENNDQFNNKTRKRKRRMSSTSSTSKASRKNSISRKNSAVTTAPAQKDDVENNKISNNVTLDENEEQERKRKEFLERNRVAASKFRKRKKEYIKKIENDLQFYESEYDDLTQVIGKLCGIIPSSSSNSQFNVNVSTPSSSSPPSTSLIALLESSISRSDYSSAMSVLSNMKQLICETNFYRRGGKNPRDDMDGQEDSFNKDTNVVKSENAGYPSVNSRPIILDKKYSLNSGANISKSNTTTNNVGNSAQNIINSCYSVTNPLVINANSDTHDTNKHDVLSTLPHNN
How it was run: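 Using PURExpress in vitro transcription/translation, GST-tagged yeast transcription factors were made in full-length or DNA-binding-domain form. These were applied at about 100-200 nM to double-stranded universal all-10-mer Agilent arrays, and bound protein was detected with fluorescent anti-GST. Scans were normalised with masliner before the Universal PBM Analysis Suite assigned E-scores to ungapped eight-base words pooled with their reverse complements.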

Row | Sequence | PBM E-score
1 | CCAACGCA | 0.117
2 | TAAGCAGA | -0.00339
3 | AGACCTCA | -0.097
4 | AGGACTCA | 0.0831
5 | AACCTGAC | 0.0465
6 | AGGTACTC | -0.109
7 | ACCTGCGG | -0.343
8 | CGCATGCC | 0.108
9 | CACGATCA | 0.185
10 | AATGTCCT | -0.0112
11 | ATGGCTCA | -0.0823
12 | AGCTGAAA | 0.0355
13 | GTAGGCCA | -0.0444
14 | CAGTGGCG | -0.0659
15 | AGATGCTC | -0.106
16 | ACGTGTTG | 0.426
17 | CGTCCCAG | -0.111
18 | CGACATAA | 0.226
19 | GAAGTTGC | -0.0684
20 | ACCGATGG | -0.0547
21 | AGCTATAC | 0.0268
22 | CTCGCAGC | -0.155

Row | Sequence | PBM E-score
23 | GATAACAA | -0.00192
24 | GATGGCCC | -0.0912
25 | GAAGACTA | -0.0637
26 | GCTACTTA | 0.0424
27 | ATGGCGTA | 0.449
28 | ACTAACGG | -0.113
29 | AGGGTGGC | -0.298
30 | CGCTCGAG | 0.021
31 | CATGGTGA | 0.135
32 | GCGTCCCC | -0.303
33 | GACTGAGA | 0.019
34 | CTACTCCA | -0.163
35 | ACTCGCCT | -0.196
36 | ACCGACCT | -0.192
37 | CTCCACGC | -0.122
38 | CCCTAGTA | -0.103
39 | CTACCTAA | 0.155
40 | GACTCTGC | -0.212
41 | GGAATGTA | -0.152
42 | AAAACTAC | 0.193
43 | AGCTGGAC | -0.118
44 | CTTTGGCA | -0.314

Row | Sequence | PBM E-score
45 | GGGCCAAC | -0.233
46 | AAAAGGAA | 0.012
47 | AACAGGAT | -0.0732
48 | CCAATGTC | 0.059
49 | ACCGGACC | -0.144
50 | CATGGCTC | -0.0291
51 | GGTCAAAA | 0.096
52 | CCCAGGGC | -0.357
53 | CATGTGAA | -0.026
54 | CTCCAGAG | -0.282
55 | GTGACATA | 0.381
56 | AGGACTGG | -0.19
57 | CCTCCTAG | -0.195
58 | GGGTGTAA | -0.127
59 | ACCAAGGG | -0.127
60 | AATTCAAA | 0.193
61 | AGGGTGCC | -0.328
62 | GGTCGCGA | -0.0404
63 | ATAGTCAA | -0.0272
64 | ACGGACAT | -0.0219
65 | CACAAAGG | 0.0434
66 | AGCAGACA | -0.253

Row | Sequence | PBM E-score
67 | CCCAGTCC | -0.295
68 | CCACAGCC | -0.309
69 | CCCACTGA | -0.268
70 | ATCACAAT | 0.143
71 | CACGGAAA | 0.0747
72 | TAGATGGA | -0.02
73 | GAGTCCGC | -0.271
74 | GTAGAATA | 0.172
75 | GGACGCAC | 0.018
76 | ACGTGACG | 0.462
77 | CTAGCAAC | 0.0659
78 | TCCACGCA | 0.185
79 | ACACGAAT | 0.233
80 | GTATCGGA | 0.0853
81 | CAGCTCGG | -0.202
82 | AACCTAAT | 0.104
83 | AAGCCAGA | -0.184
84 | AATATGAA | 0.193
85 | CTGCCTGA | 0.0683
86 | ACTACCGA | -0.221
87 | ATTCCGCG | 0.057
88 | GCGCCCGA | -0.065

Row | Sequence | PBM E-score
89 | AGTTTTAG | 0.0986
90 | GTTACTTA | 0.158
91 | AAGACGCA | 0.135
92 | TAGCGACA | 0.11
93 | CACCAGAG | -0.304
94 | AAATAAGG | 0.112
95 | AGCTCCAC | -0.224
96 | ACACGATG | 0.115
97 | AGGAAGAC | -0.132
98 | ACGCCTCA | -0.0263
99 | ATCGGCGC | -0.076
100 | GCATTAAC | 0.13
101 | GGTATAAC | 0.113
102 | TCGGGGCA | -0.286
103 | TCATCGGA | 0.13
104 | CCAGAAGG | -0.164
105 | GTGCTTAA | 0.0867
106 | CGCTAACC | -0.187
107 | TAGGATAA | 0.0472
108 | ATCGTCAC | 0.385
109 | ACATTTTC | 0.127
110 | GACCTCCC | -0.323
